Source: a collection of fitness landscapes (doi:10.1126/science.1257360)
The other results are listed elsewhere or left out.

B1: PhoQ; a variant is named by its letters at X, in order, P23837 (parent)
chain: MKKLLRLFFPLSLRVRFLLATAAVVLVLSLAYGMVALIGYSVSFDKTTFRLLRGESNLFYTLAKWENNKLHVELPENIDKQSPTMTLIYDENGQLLWAQRDVPWLMKMIQPDWLKSNGFHEIEADVNDTSLLLSGDHSIQQQLQEVREDDDDAEMTHSVAVNVYPATSRMPKLTIVVVDTIPVELKSSYMVWSWFIYVLSANLLLVIPLLWVAAWWSLRPIEALAKEVRELEEHNRELLNPATTRELTSLVRNLNRLLKSERERYDKYRTTLTDLTHSLKTPLXXLQXXLRSLRSEKMSVSDAEPVMLEQISRISQQIGYYLHRASMRGGTLLSRELHPVAPLLDNLTSALNKVYQRKGVNISLDISPEISFVGEQNDFVEVMGNVLDNACKYCLEFVEISARQTDEHLYIVVEDDGPGIPLSKREVIFDRGQRVDTLRPGQGVGLAVAREITEQYEGKIVAGESMLGGARMEVIFGRQHSAPKDE

Variants of: B1
Assay: enrichment ratio after two sorts for PhoP signalling (ratio (wild type AVST 3.29)); higher = more functional
Conditions: with PhoP (E. coli)

| Variant | enrichment ratio |
| --- | --- |
| LAVV | ≤ 0.25 |
| VCLA | 0.76 |
| HQIK | ≤ 0.25 |
| PYSC | ≤ 0.25 |
| ISVW | ≤ 0.25 |
| FKDY | ≤ 0.25 |
| TGGL | 3.52 |
| FKGY | ≤ 0.25 |
| EMIA | ≤ 0.25 |
| KQRH | ≤ 0.25 |
| DNMW | ≤ 0.25 |
| NQGA | ≤ 0.25 |
| DIII | ≤ 0.25 |
| NEQT | ≤ 0.25 |
| VLPH | ≤ 0.25 |
| QGII | ≤ 0.25 |
| TTRV | ≤ 0.25 |
| MCEF | ≤ 0.25 |
| RKSE | ≤ 0.25 |
| KDIC | ≤ 0.25 |
| ASWT | ≤ 0.25 |
| WWIL | ≤ 0.25 |
| PNFE | ≤ 0.25 |
| MRHW | ≤ 0.25 |

| Variant | enrichment ratio |
| --- | --- |
| NRLG | ≤ 0.25 |
| PKAA | ≤ 0.25 |
| LWML | ≤ 0.25 |
| GLMI | 2.79 |
| QPYV | ≤ 0.25 |
| QLSY | ≤ 0.25 |
| SNWM | ≤ 0.25 |
| QFTV | ≤ 0.25 |
| KRSH | ≤ 0.25 |
| SKFM | 1.42 |
| VYID | ≤ 0.25 |
| LVHC | 15 |
| KRFH | ≤ 0.25 |
| EVLE | ≤ 0.25 |
| YCPH | ≤ 0.25 |
| RMPY | ≤ 0.25 |
| MESG | 15.7 |
| WHDR | ≤ 0.25 |
| QGSF | 1.82 |
| PGPC | ≤ 0.25 |
| GIAI | 6.79 |
| ICFS | ≤ 0.25 |
| VKDN | ≤ 0.25 |
| LNLK | ≤ 0.25 |

| Variant | enrichment ratio |
| --- | --- |
| ERFR | ≤ 0.25 |
| QVDK | ≤ 0.25 |
| VVGH | ≤ 0.25 |
| VTIF | ≤ 0.25 |
| EASV | ≤ 0.25 |
| MHGV | ≤ 0.25 |
| PSGI | ≤ 0.25 |
| DCIT | ≤ 0.25 |
| YKPT | ≤ 0.25 |
| LKRT | 0.317 |
| PVTW | ≤ 0.25 |
| WQYI | ≤ 0.25 |
| FCGM | ≤ 0.25 |
| ECSI | ≤ 0.25 |
| AKVV | 11 |
| CTIF | ≤ 0.25 |
| QAIH | ≤ 0.25 |
| LQHY | ≤ 0.25 |
| SNRD | ≤ 0.25 |
| HIPL | ≤ 0.25 |
| RPTH | ≤ 0.25 |
| RFCG | ≤ 0.25 |
| IDRD | ≤ 0.25 |
| WMRS | ≤ 0.25 |

| Variant | enrichment ratio |
| --- | --- |
| QHER | ≤ 0.25 |
| RLYH | ≤ 0.25 |
| YSPL | ≤ 0.25 |
| ETAD | ≤ 0.25 |
| KLIA | ≤ 0.25 |
| HEMY | ≤ 0.25 |
| ADGH | ≤ 0.25 |
| PHSV | ≤ 0.25 |
| RSCY | ≤ 0.25 |
| YSKL | ≤ 0.25 |
| RGLE | ≤ 0.25 |
| SYMA | ≤ 0.25 |
| QCSV | ≤ 0.25 |
| NLAC | ≤ 0.25 |
| NNTK | ≤ 0.25 |
| SLGI | 3.99 |
| ACVC | 1.02 |
| RHMK | ≤ 0.25 |
| GNIR | ≤ 0.25 |
| QTDP | ≤ 0.25 |
| FQTW | ≤ 0.25 |
| DWYP | ≤ 0.25 |
| RHNM | ≤ 0.25 |
| MLID | ≤ 0.25 |

| Variant | enrichment ratio |
| --- | --- |
| LLVF | ≤ 0.25 |
| TPAV | ≤ 0.25 |
| FFHC | ≤ 0.25 |
| NDNA | ≤ 0.25 |
| TIQS | 8.68 |
| TSLD | 8.58 |
| TEQW | ≤ 0.25 |
| RKQF | ≤ 0.25 |
| SCSN | 12.3 |
| PMPH | ≤ 0.25 |
| CGWP | ≤ 0.25 |
| FHYA | ≤ 0.25 |
| RHPA | ≤ 0.25 |
| TCAS | 12.2 |
| IAEI | ≤ 0.25 |
| SFTA | 0.401 |
| HAAK | ≤ 0.25 |
| LVLR | ≤ 0.25 |
| EYYF | ≤ 0.25 |
| MQQA | ≤ 0.25 |
| VIVV | ≤ 0.25 |
| FDVM | ≤ 0.25 |
| KHAS | ≤ 0.25 |
| HLSQ | ≤ 0.25 |

| Variant | enrichment ratio |
| --- | --- |
| YTAR | ≤ 0.25 |
| VPRI | ≤ 0.25 |
| SDVT | 1.53 |
| FFFQ | ≤ 0.25 |
| ETSI | ≤ 0.25 |
| MDFH | ≤ 0.25 |
| EPGS | ≤ 0.25 |
| FMKG | ≤ 0.25 |
| ELDH | ≤ 0.25 |
| VTRY | ≤ 0.25 |
| GTAY | ≤ 0.25 |
| EAPH | ≤ 0.25 |
| SFHA | ≤ 0.25 |
| LHRQ | ≤ 0.25 |
| LLPE | ≤ 0.25 |
| NPFS | ≤ 0.25 |
| NSYL | ≤ 0.25 |
| IIAH | ≤ 0.25 |
| CSLS | 21.9 |
| VFDQ | ≤ 0.25 |
| TAGM | 13.2 |
| VSAW | ≤ 0.25 |
| EDLC | ≤ 0.25 |
| FSIT | ≤ 0.25 |

| Variant | enrichment ratio |
| --- | --- |
| PFCW | ≤ 0.25 |
| TFMY | ≤ 0.25 |
| DIPG | ≤ 0.25 |
| IDMV | ≤ 0.25 |
| ICFQ | ≤ 0.25 |
| DGMK | ≤ 0.25 |
| KYYG | ≤ 0.25 |
| VWNM | ≤ 0.25 |
| VSEE | ≤ 0.25 |
| MNEA | ≤ 0.25 |
| QAVL | ≤ 0.25 |
| MHFP | ≤ 0.25 |
| GHIR | ≤ 0.25 |
| CLSM | 22.7 |
| DAYD | ≤ 0.25 |
| QALG | 1.89 |
| GDTQ | ≤ 0.25 |
| EFRM | ≤ 0.25 |
| PVST | ≤ 0.25 |
| PINW | ≤ 0.25 |
| GVSM | 0.841 |
| RVWR | ≤ 0.25 |
| TMLE | 2.87 |
| FDTT | ≤ 0.25 |

| Variant | enrichment ratio |
| --- | --- |
| LQWG | ≤ 0.25 |
| ADTL | ≤ 0.25 |
| ACMG | 14.3 |
| VDYW | ≤ 0.25 |
| WIHC | ≤ 0.25 |
| MFIG | ≤ 0.25 |
| IAWL | ≤ 0.25 |
| DQIW | ≤ 0.25 |
| YIHK | ≤ 0.25 |
| LMPQ | ≤ 0.25 |
| VEAH | ≤ 0.25 |
| KHKP | ≤ 0.25 |
| DPLR | ≤ 0.25 |
| EHWG | ≤ 0.25 |
| NCTK | ≤ 0.25 |
| MLAQ | ≤ 0.25 |
| EKTD | ≤ 0.25 |
| DCFR | 0.69 |
| SIHD | ≤ 0.25 |
| GICT | 7.19 |
| GCCY | ≤ 0.25 |
| KLAY | ≤ 0.25 |
| QFIN | ≤ 0.25 |
| TKEE | ≤ 0.25 |

| Variant | enrichment ratio |
| --- | --- |
| WEGW | ≤ 0.25 |
| FKCP | ≤ 0.25 |
| ISVH | ≤ 0.25 |
| TMMA | 1.02 |
| ETFL | ≤ 0.25 |
| TGLM | 26.9 |
| YAKP | ≤ 0.25 |
| YFDC | ≤ 0.25 |
| KYHP | ≤ 0.25 |
| PKVR | ≤ 0.25 |
| SRVW | ≤ 0.25 |
| TKPD | ≤ 0.25 |
| FEKR | ≤ 0.25 |
| KIAS | ≤ 0.25 |
| KYHY | ≤ 0.25 |
| LRKM | ≤ 0.25 |
| GSPP | ≤ 0.25 |
| YYCC | ≤ 0.25 |
| NGRV | ≤ 0.25 |
| EQPC | ≤ 0.25 |
| MMCY | ≤ 0.25 |
| TSAN | 9.44 |
| MNLY | ≤ 0.25 |
| AGDI | ≤ 0.25 |

| Variant | enrichment ratio |
| --- | --- |
| PTDT | ≤ 0.25 |
| LVTY | ≤ 0.25 |
| SAEQ | ≤ 0.25 |
| YHPE | ≤ 0.25 |
| HNLD | ≤ 0.25 |
| WAWQ | ≤ 0.25 |
| HVFI | ≤ 0.25 |
| GQGS | ≤ 0.25 |
| NLYR | ≤ 0.25 |
| DESN | ≤ 0.25 |
| RNES | ≤ 0.25 |
| PCRQ | ≤ 0.25 |
| RQNE | ≤ 0.25 |
| INDK | ≤ 0.25 |
| NFGA | ≤ 0.25 |
| VGFD | ≤ 0.25 |
| TTAW | 5.53 |
| ECHH | ≤ 0.25 |
| QAYK | ≤ 0.25 |
| SIKF | ≤ 0.25 |
| MSDE | ≤ 0.25 |
| NLRP | ≤ 0.25 |
| RLPV | ≤ 0.25 |
| RMSI | ≤ 0.25 |

| Variant | enrichment ratio |
| --- | --- |
| LCDY | ≤ 0.25 |
| FVNL | ≤ 0.25 |
| EIQW | ≤ 0.25 |
| DSCE | ≤ 0.25 |
| QQYG | ≤ 0.25 |
| EYVK | ≤ 0.25 |
| KSEW | ≤ 0.25 |
| EAVI | ≤ 0.25 |
| LVCA | ≤ 0.25 |
| LPLP | ≤ 0.25 |
| DYSF | ≤ 0.25 |
| QNHA | ≤ 0.25 |
| WKTG | ≤ 0.25 |
| PGAP | ≤ 0.25 |
| IRRC | ≤ 0.25 |
| GAKN | ≤ 0.25 |
| KHMA | ≤ 0.25 |
| QMES | ≤ 0.25 |
| FPYN | ≤ 0.25 |
| VCRE | ≤ 0.25 |
| NTNE | ≤ 0.25 |
| AVRP | ≤ 0.25 |
| PAPT | ≤ 0.25 |
| LEIP | ≤ 0.25 |

| Variant | enrichment ratio |
| --- | --- |
| QQTR | ≤ 0.25 |
| LSTM | ≤ 0.25 |
| HAMV | ≤ 0.25 |
| TLLY | ≤ 0.25 |
| YNTG | 0.356 |
| HMSN | ≤ 0.25 |
| SAPP | ≤ 0.25 |
| AHNF | 9.49 |
| DAMM | ≤ 0.25 |
| NLSD | ≤ 0.25 |
| QGVD | ≤ 0.25 |
| VSVM | 1.27 |
| MKES | ≤ 0.25 |
| THHH | ≤ 0.25 |
| WRGN | ≤ 0.25 |
| TYTI | 0.291 |
| KYIF | ≤ 0.25 |
| DNDF | ≤ 0.25 |
| IKDQ | ≤ 0.25 |
| ATTG | 12 |
| KAVQ | ≤ 0.25 |
| YGAE | ≤ 0.25 |
| RCWR | ≤ 0.25 |
| YTGP | 0.281 |

| Variant | enrichment ratio |
| --- | --- |
| ANSP | ≤ 0.25 |
| LIVC | ≤ 0.25 |
| SCYK | ≤ 0.25 |
| SVMR | 12.6 |
| YPKK | ≤ 0.25 |
| KYLK | ≤ 0.25 |
| DSTM | ≤ 0.25 |
| FKFP | ≤ 0.25 |
| KDWM | ≤ 0.25 |
| VVRH | ≤ 0.25 |
| WFAY | ≤ 0.25 |
| APLF | ≤ 0.25 |
| YSLT | 4.38 |
| PDFS | ≤ 0.25 |
| EGTD | ≤ 0.25 |
| LDWW | ≤ 0.25 |
| ATCK | 3.27 |
| HQYD | ≤ 0.25 |
